Measurements: the supplement of paper PMC9588766
Counter-ions that a name gives are not always drawn. ± gives the standard deviation of the averaged measurements. In all, about 2,000 compounds were measured (“cell viability relative to DMSO control (compound alone)”: median about 0.98, lowest 2% from about 0.23 on). The list shows a part of the results.

test system: PDC-DUC18828; test: cell viability relative to DMSO control (compound alone) (fraction); PDC-DUC18828 is a patient-derived cholangiocarcinoma cell line; higher = less growth inhibition; settings: 1 µM; 72 h
Experimental: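 Selleck Bioactive library screen in the patient-derived FGFR2-G3BP2 fusion-positive ICC cell line PDC-DUC18828 (500 cells/well). Each compound was tested at 1 uM alone, in triplicate, for 72 h. Viability was read by CellTiter-Glo and normalised to plate DMSO controls.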

| Structure (SMILES) | cell viability |
| --- | --- |
| C[C@H](CS)C(=O)N1CCC[C@H]1C(=O)O [Captopril] | 1.11 ± 0.056 |
| CN(Cc1cc(Br)cc(Br)c1N)C1CCCCC1 [Bromhexine HCl] | 1.06 ± 0.027 |
| O=C(c1ccccc1)c1ccc2nc(NC(=O)c3csc(C4CCN(c5ncnc6ccsc56)CC4)n3)[nH]c2c1 | 1.03 ± 0.038 |
| Cn1c(N2CCCCS2(=O)=O)nc(C(=O)NCc2ccc(F)cc2)c(O)c1=O | 0.972 ± 0.028 |
| C[N+](C)(C)CC(O)CC(=O)[O-] (racemic) [DL-Carnitine HCl] | 1.03 ± 0.03 |
| CCS(=O)(=O)N1CCN(c2ccc(Nc3ncc(C(N)=O)c(NC4CC4)n3)cc2)CC1 | 0.8 ± 0.017 |
| C[N+](C)(C)C[C@H](O)CC(=O)[O-] [L-carnitine] | 0.955 ± 0.09 |
| C=CC[N+]1([C@H]2C[C@H]3[C@@H]4CC[C@H]5C[C@H](O)[C@@H](N6CCOCC6)C[C@]5(C)[C@H]4CC[C@]3(C)[C@H]2OC(C)=O)CCCC1 [Rocuronium Bromide] | 0.997 ± 0.032 |
| Cc1ccc(C(=O)Cn2c3c(sc2=N)CCCC3)cc1 [Pifithrin-α (PFTα)] | 1.01 ± 0.031 |
| CC(C)(C)NC(=O)[C@H]1CC[C@H]2[C@@H]3CC[C@H]4NC(=O)C=C[C@]4(C)[C@H]3CC[C@]12C [Finasteride] | 0.915 ± 0.033 |
| C=C1CC[C@H](O)C/C1=C/C=C1\CCC[C@]2(C)[C@@H]([C@H](C)/C=C/[C@H](C)C(C)C)CC[C@@H]12 [Vitamin D2] | 0.992 ± 0.014 |
| Nc1nc(N)c2nc(-c3ccccc3)c(N)nc2n1 [Triamterene] | 0.999 ± 0.068 |
| COc1ccc(CCC(=O)Nc2nc3ccc(Cl)cc3s2)cc1OC | 1.02 ± 0.022 |
| C=C1C(=O)O[C@H]2[C@H]1CC/C(C)=C/CC[C@@]1(C)O[C@@H]21 [(-)-Parthenolide] | 0.828 ± 0.036 |
| CCCCOc1ccc(C(=O)CCN2CCCCC2)cc1 [Dyclonine HCl] | 1.07 ± 0.034 |
| CC(C)(C)CC(C)(C)c1ccc(OCCOCC[N+](C)(C)Cc2ccccc2)cc1 [Benzethonium Chloride] | 0.998 ± 0.012 |
| Cn1nnc2c(C(N)=O)ncn2c1=O [Temozolomide] | 0.965 ± 0.018 |
| O=[N+]([O-])c1cn2c(n1)OC[C@@H](OCc1ccc(OC(F)(F)F)cc1)C2 | 0.924 ± 0.075 |
| O=c1cc[nH]c(=O)[nH]1 [Uracil] | 1.08 ± 0.066 |
| COc1ccc(-c2cc(=O)c3c(OC)c(OC)c(OC)c(OC)c3o2)cc1OC [Nobiletin] | 0.939 ± 0.076 |
| Cc1ccc(C(=O)Nc2cccc(C(F)(F)F)c2)cc1Nc1nc(-c2cccnc2)nc2c1cnn2C | 1.02 ± 0.016 |
| CCOC(=O)N1c2ccc(C(F)(F)F)cc2[C@@H](N(Cc2cc(C(F)(F)F)cc(C(F)(F)F)c2)C(=O)OC)C[C@H]1CC [Torcetrapib] | 1.07 ± 0.026 |
| CO[C@H]1C[C@@H]2CC[C@@H](C)[C@@](O)(O2)C(=O)C(=O)N2CCCC[C@H]2C(=O)O[C@H]([C@H](C)C[C@@H]2CC[C@@H](OC(=O)C(C)(CO)CO)[C@H](OC)C2)CC(=O)[C@H](C)/C=C(\C)[C@@H](O)[C@@H](OC)C(=O)[C@H](C)C[C@H](C)/C=C/C=C/C=C/1C | 0.545 ± 0.057 |
| CCC[C@@H]1C[C@@H](C(=O)N[C@@H]([C@H]2O[C@H](SC)[C@H](O)[C@@H](O)[C@H]2O)[C@@H](C)O)N(C)C1 [Lincomycin HCl] | 0.98 ± 0.028 |
| N#Cc1c(Oc2ccc(F)c(NC(=O)Cc3cccc(C(F)(F)F)c3)c2)ccc2nc(NC(=O)C3CC3)sc12 | 0.918 ± 0.087 |
| Cc1ccc(CNc2ncnc3ccc(-c4ccc(CO)o4)cc23)o1 | 0.917 ± 0.06 |

| Structure (SMILES) | cell viability |
| --- | --- |
| CN1C(C(=O)Nc2ccccn2)=C(O)c2sc(Cl)cc2S1(=O)=O [Lornoxicam] | 1.1 ± 0.0054 |
| CC12CC3CC(C)(C1)CC(N)(C3)C2 [Memantine HCl] | 1.01 ± 0.018 |
| O=C(O)c1ccc(C=C2SC(=S)N(c3cccc(C(F)(F)F)c3)C2=O)cc1 | 0.981 ± 0.031 |
| COc1ccc(-c2cc(=O)c3c(OC)c(OC)c(OC)c(OC)c3o2)cc1 [Tangeretin] | 0.963 ± 0.032 |
| Cc1cccc(-c2nn3c(c2-c2ccnc4ccc(C(N)=O)cc24)CCC3)n1 | 1.1 ± 0.013 |
| CC(C)c1nc(CN(C)C(=O)N[C@@H](CCN2CCOCC2)C(=O)N[C@H](CC[C@H](Cc2ccccc2)NC(=O)OCc2cncs2)Cc2ccccc2)cs1 [Cobicistat (GS-9350)] | 1.01 ± 0.07 |
| Cc1cc(C)nc(NS(=O)(=O)c2ccc(NC(=S)NC(=O)COc3ccc(Br)cc3Cl)cc2)n1 | 1.01 ± 0.08 |
| O=C(Nc1cccnc1)N1CCC(Cc2cccc(Oc3ccc(C(F)(F)F)cn3)c2)CC1 | 1.01 ± 0.047 |
| CCCCc1oc2ccccc2c1C(=O)c1cc(I)c(OCCN(CC)CC)c(I)c1 [Amiodarone HCl] | 0.975 ± 0.045 |
| O=C(O)c1cccnc1 [Nicotinic Acid] | 1.031 ± 0.0061 |
| C=CCNC1=C2C[C@@H](C)C[C@H](OC)[C@H](O)[C@@H](C)/C=C(\C)[C@H](OC(N)=O)[C@@H](OC)/C=C\C=C(/C)C(=O)NC(=CC1=O)C2=O [17-AAG (Tanespimycin)] | 0.315 ± 0.02 |
| Cc1cccc(N(C)C(=S)Oc2ccc3ccccc3c2)c1 [Tolnaftate] | 1.06 ± 0.032 |
| O=c1[nH]c(=O)n([C@H]2C[C@H](O)[C@@H](CO)O2)cc1I [Idoxuridine] | 0.994 ± 0.032 |
| CN1CCN(c2ccc3nc(-c4c(N)c5c(F)cccc5[nH]c4=O)[nH]c3c2)CC1 [Dovitinib (TKI-258, CHIR-258)] | 0.942 ± 0.046 |
| CN1CCN(c2ccc3nc(-c4c(N)c5c(F)cccc5[nH]c4=O)[nH]c3c2)CC1 [Dovitinib (TKI258) Lactate] | 0.743 ± 0.046 |
| COc1ccc(-c2ccc3cc(C(=O)O)ccc3c2)cc1C12CC3CC(CC(C3)C1)C2 [Adapalene] | 1.01 ± 0.012 |
| COc1cc2c(NC3CCN(CC4CCCCC4)CC3)nc(N3CCCN(C(C)C)CC3)nc2cc1OCCCN1CCCCC1 | 0.996 ± 0.034 |
| NNC(=O)c1ccncc1 [Isoniazid] | 1.02 ± 0.073 |
| CC1(C)C=C(CN2C/C(=C\c3ccc(F)cc3)C(=O)/C(=C/c3ccc(F)cc3)C2)C(C)(C)N1O | 0.952 ± 0.061 |
| C[C@H]1C[C@H]2[C@@H]3CCC4=CC(=O)C=C[C@]4(C)[C@H]3C(=O)C[C@]2(C)[C@@]1(O)C(=O)CO [Meprednisone] | 1.04 ± 0.011 |
| Cc1ccc(S(=O)(=O)OCC(=O)Nc2ccc(C(=O)O)c(O)c2)cc1 | 0.988 ± 0.018 |
| O=C(O)CCCN1CCC(O[C@@H](c2ccc(Cl)cc2)c2ccccn2)CC1 [Bepotastine Besilate] | 0.972 ± 0.023 |
| Cn1c(=O)c(F)c(Nc2ccc(I)cc2F)c2c(=O)n(C[C@@H](O)CO)cnc21 | 0.663 ± 0.098 |
| COc1ccc(/C=C/C(=O)C2(C(=O)/C=C/c3ccc(OC)c(OC)c3)CCCCC2)cc1OC | 0.824 ± 0.12 |
| COc1ccc(-c2cc3c(C)nc(N)nc3n([C@H]3CC[C@H](OCCO)CC3)c2=O)cn1 | 0.222 ± 0.0044 |
| CCC(C)(C)c1ccc(CC(C)CN2C[C@@H](C)O[C@@H](C)C2)cc1 (some centres not stated) [Amorolfine HCl] | 0.999 ± 0.026 |

| Structure (SMILES) | cell viability |
| --- | --- |
| CC(C)N(CCC(=O)c1ccc2ccccc2c1)Cc1ccccc1 | 1.05 ± 0.02 |
| CC(C)(C)C#Cc1cc(N(C(=O)[C@H]2CC[C@H](C)CC2)[C@H]2CC[C@H](O)CC2)c(C(=O)O)s1 [VX-222 (VCH-222, Lomibuvir)] | 1 ± 0.021 |
| CCOC(=O)c1ccc(C#Cc2ccc3c(c2)C(C)(C)CCS3)nc1 [Tazarotene] | 1.08 ± 0.051 |
| CCCNS(=O)(=O)Nc1ncnc(OCCOc2ncc(Br)cn2)c1-c1ccc(Br)cc1 [Macitentan] | 0.993 ± 0.038 |
| CCOc1nc2cccc(C(=O)OC(C)OC(=O)OC3CCCCC3)c2n1Cc1ccc(-c2ccccc2-c2nn[nH]n2)cc1 (configuration not stated) [Candesartan Cilexetil] | 1.04 ± 0.047 |
| Nc1ccc(S(N)(=O)=O)cc1 [Sulfanilamide] | 0.973 ± 0.038 |
| CCN1CCC[C@H]1CNC(=O)c1cc(S(N)(=O)=O)ccc1OC [Levosulpiride] | 1.02 ± 0.049 |
| CC(C)(Oc1ccc(C2CC2(Cl)Cl)cc1)C(=O)O (configuration not stated) [Ciprofibrate] | 0.932 ± 0.082 |
| N#CC(=C(/N)Sc1ccccc1N)/C(C#N)=C(\N)Sc1ccccc1N | 0.937 ± 0.07 |
| COc1ccc(CNCc2cccc3ccccc23)cc1 | 1.03 ± 0.077 |
| NC(=O)[C@@H](CCC(F)(F)F)N(Cc1ccc(-c2ncon2)cc1F)S(=O)(=O)c1ccc(Cl)cc1 | 0.934 ± 0.071 |
| Cc1[nH]c(/C=C2\C(=O)Nc3ccc(S(=O)(=O)Cc4c(Cl)cccc4Cl)cc32)c(C)c1C(=O)N1CCC[C@@H]1CN1CCCC1 | 1.03 ± 0.08 |
| C=CCN1CCCC1CNC(=O)c1cc2nn[nH]c2cc1OC (configuration not stated) [Alizapride HCl] | 0.96 ± 0.042 |
| Nc1nc(Nc2ccc(S(N)(=O)=O)cc2)nn1C(=O)c1c(F)cccc1F | 0.839 ± 0.056 |
| CC(C)c1onc(-c2c(Cl)cccc2Cl)c1COc1ccc(/C=C/c2cccc(C(=O)O)c2)c(Cl)c1 | 1.01 ± 0.055 |
| NC(=O)CCCSc1nc(N)nc(-c2c(Cl)cc3c4c(cccc24)COC3)n1 | 0.374 ± 0.024 |
| Cc1c(Cn2c(C)nc3c(C(=O)O)cc(N4CCOCC4)cc32)cccc1C(F)(F)F | 0.932 ± 0.059 |
| CCCCCCCCCCCCCCCC[N+](C)(C)C [Cetrimonium Bromide (CTAB)] | 0.921 ± 0.018 |
| O=C(NCc1ccc(Oc2ccccc2)cc1)c1nc(-c2cc(Br)c(O)c(Br)c2)no1 | 0.983 ± 0.076 |
| S=c1nc[nH]c2nc[nH]c12 [6-Mercaptopurine (6-MP) Monohydrate] | 0.925 ± 0.064 |
| NCc1c[nH]c(=S)n1[C@H]1CCc2c(F)cc(F)cc2C1 [Nepicastat (SYN-117) HCl] | 1.02 ± 0.044 |
| Nc1nccs1 [Aminothiazole] | 1.09 ± 0.013 |
| NC(=O)c1cccnc1 [Nicotinamide (Vitamin B3)] | 1.03 ± 0.026 |
| CCCc1nc(C(C)(C)O)c(C(=O)OCc2oc(=O)oc2C)n1Cc1ccc(-c2ccccc2-c2nnn[nH]2)cc1 [Olmesartan Medoxomil] | 1.08 ± 0.07 |
| Cn1c(=O)c2c(ncn2CC(O)CO)n(C)c1=O (configuration not stated) [Dyphylline] | 0.988 ± 0.022 |
